Measurements as given in article PMC4336329 (PLoS ONE, 2015).
In all, about 310,000 compounds went through this assay and about 2,200 (0.71%) showed an effect of 50% or more. Effects have a minus sign here. The list shows a part of the results.

Each molecule was assayed against human ether-à-go-go-related gene (hERG) potassium channel (human, UniProt Q12809) (assay: primary screen, population patch clamp on CHO cells stably expressing hERG).
Chain of human ether-à-go-go-related gene (hERG) potassium channel (Q12809 whole entry, looked up): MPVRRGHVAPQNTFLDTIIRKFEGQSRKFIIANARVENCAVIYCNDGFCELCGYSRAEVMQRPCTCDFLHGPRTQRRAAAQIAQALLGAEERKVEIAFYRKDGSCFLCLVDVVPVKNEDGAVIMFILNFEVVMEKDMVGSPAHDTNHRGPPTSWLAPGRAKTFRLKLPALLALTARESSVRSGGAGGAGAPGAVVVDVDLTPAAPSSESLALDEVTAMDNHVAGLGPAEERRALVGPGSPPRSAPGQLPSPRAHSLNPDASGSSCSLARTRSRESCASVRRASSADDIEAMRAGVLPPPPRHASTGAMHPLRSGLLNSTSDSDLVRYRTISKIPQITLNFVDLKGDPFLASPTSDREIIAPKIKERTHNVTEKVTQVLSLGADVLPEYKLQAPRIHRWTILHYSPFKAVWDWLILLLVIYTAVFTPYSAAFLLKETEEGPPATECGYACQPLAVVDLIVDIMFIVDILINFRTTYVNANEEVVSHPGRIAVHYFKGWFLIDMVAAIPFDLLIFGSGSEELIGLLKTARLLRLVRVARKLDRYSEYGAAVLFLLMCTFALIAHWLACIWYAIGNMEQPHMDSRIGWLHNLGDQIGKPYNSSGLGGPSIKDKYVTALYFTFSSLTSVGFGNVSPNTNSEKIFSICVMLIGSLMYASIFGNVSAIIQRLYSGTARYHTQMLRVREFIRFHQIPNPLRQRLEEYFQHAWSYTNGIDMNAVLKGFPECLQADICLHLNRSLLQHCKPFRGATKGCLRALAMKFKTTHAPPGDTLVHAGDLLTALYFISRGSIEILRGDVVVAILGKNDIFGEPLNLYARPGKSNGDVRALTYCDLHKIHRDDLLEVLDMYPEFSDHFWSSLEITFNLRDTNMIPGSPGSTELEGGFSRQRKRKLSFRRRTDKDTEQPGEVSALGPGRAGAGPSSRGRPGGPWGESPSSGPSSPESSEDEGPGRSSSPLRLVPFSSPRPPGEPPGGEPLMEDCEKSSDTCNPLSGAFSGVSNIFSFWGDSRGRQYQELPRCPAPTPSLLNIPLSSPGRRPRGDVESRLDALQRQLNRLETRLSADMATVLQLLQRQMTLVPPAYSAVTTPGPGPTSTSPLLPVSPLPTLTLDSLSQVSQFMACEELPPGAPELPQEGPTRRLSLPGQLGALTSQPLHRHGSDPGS

| SMILES | hERG current change (%, negative = inhibition) at 1uM |
| --- | --- |
| Nc1nc2nc(-c3cccs3)cc(C(F)(F)F)n2n1 | 17.2% |
| O=C(O)c1ccc(S(=O)(=O)c2ccc3c(c2)C(=O)N(NC(=O)c2ccc(O)cc2)C3=O)cc1 | 9.85% |
| Cc1ccc(OCc2nc(C#N)c(NCCCn3ccnc3)o2)cc1 | -28% |
| CCc1ccc(-c2cn(-c3nc(C)cc(C)n3)c(=N)o2)cc1 | -32.2% |
| COc1ccc(OC)c(NC(=O)CCCSc2ccccc2)c1 | 14% |
| CC(=O)c1cccc(NC(=S)NC(=O)CC(C)C)c1 | 7.25% |
| COC(=O)c1[nH]c2c(c1C)C(=O)CC(c1cc(OC)ccc1OC)C2 (stereo not shown) | 9.46% |
| COCCCn1cc(C(=O)c2cc(OC)ccc2OCC(=O)N2CCCCC2C)cc(C#N)c1=O (stereo not shown) | -6.39% |
| CC(=O)N1c2ccc(S(=O)(=O)N3CCCC3C(=O)NCc3ccc(Cl)cc3)cc2CC1C (stereo not shown) | -23.6% |
| Cn1c(=O)oc2cc(S(=O)(=O)NCCC(=O)NC3CCCC3)ccc21 | -0.0182% |
| CC(C)OP(=O)(OC(C)C)C(O)c1ccc(Br)cc1 (stereo not shown) | -2.23% |
| O=C(Nc1ccc2c(c1)OCO2)[C@@H]1[C@@H]2C(=O)N(C3CCCCC3)C(=O)[C@@H]2C2c3ccccc3C=CN21 (stereo partly shown) | -5.83% |
| C[n+]1ccc(C(=O)NCCC[N+](C)(C)C)cc1/C=N/O.[Cl-] | 15.4% |
| COc1cccc(NC(=O)CN2CCN(S(=O)(=O)c3ccc(F)cc3)CC2)c1 | 4.16% |
| CC(C)(C)c1ccc(Oc2ccc(N)cn2)cc1 | 11.2% |
| N#Cc1cnn(-c2ncnc3sc(-c4ccccc4)cc23)c1N | 3.12% |
| Cc1ccc(NC(=O)CSc2nc3nc(C)c(Br)cc3[nH]2)cc1F | 15.4% |
| O=C(Nc1ncnc2sc3c(c12)CCCCC3)c1ccco1 | -0.306% |
| O=C(Nc1nc(COc2ccccc2)cs1)C12CC3CC(CC(C3)C1)C2 | -4.23% |
| COc1ccc(-n2c(Cc3cc(=O)[nH]c(=O)[nH]3)nnc2SCC(=O)N2CCCC2)cc1 | -4.1% |
| COc1cc(OC)cc(OC(=O)c2ccc3c(=O)n4c(nc3c2)CCC4)c1 | 3.08% |
| c1ccc(CCn2c3ccccc3c3nnc(SCc4ccc5nonc5c4)nc32)cc1 | -3.19% |
| COc1ccc(Cl)cc1N(CC(=O)Nc1ccccc1C(=O)N1CCOCC1)S(C)(=O)=O | 4.75% |
| COC(=O)C1=C(N)Oc2cc(C)oc(=O)c2C12C(=O)Nc1ccccc12 (stereo not shown) | 12.7% |
| O=C(CNS(=O)(=O)c1ccccc1)N1CCN(c2ccccc2)CC1 | -2.25% |
| O=C(NCCN1CCOCC1)c1ccc(CS(=O)(=O)c2ccc(Br)cc2)o1 | -0.189% |
| CCSc1nc2c(c(=O)[nH]1)C(C(C)C)C(C#N)=C(N)O2 (stereo not shown) | 9.65% |
| CCCc1cc(=O)[nH]c(SCCc2ccccc2)n1 | 12.8% |

| SMILES | hERG current change (%, negative = inhibition) at 1uM |
| --- | --- |
| CCOc1cc2[nH]c(=S)n(CCCCC(=O)NCc3ccco3)c(=O)c2cc1OCC | -3.41% |
| COC(C(=O)N/N=C(\C)CC(=O)Nc1ccc(Cl)cc1C)c1ccccc1 (stereo not shown) | 6.55% |
| CCN(CC)CCCNC(=O)c1cc2c(Cl)nc3ccccc3c2s1 | -8.23% |
| COc1cc(/C=c2\sc3n(c2=O)CCCN=3)ccc1O | 13.5% |
| Cc1ccc(C2=NN(C(=O)CSc3nccn3C)C(c3ccco3)C2)cc1 (stereo not shown) | -13.7% |
| O=C(Nc1nc2ccccc2[nH]1)c1ccc(OC(F)F)cc1 | 0.409% |
| COc1ccc2nc(Cl)c(C3CC(c4ccco4)=NN3C(=O)CCC(=O)O)cc2c1 (stereo not shown) | -8.1% |
| CC(CCc1ccccc1)NC(=O)CNc1cccc([N+](=O)[O-])c1 (stereo not shown) | -2.71% |
| CSc1nnc(NC(=O)C2CCCCC2)s1 | 7.66% |
| O=C(O)CSCC(=O)N(Cc1ccccc1)c1nc(-c2ccccc2)c(-c2ccccc2)s1 | 6.31% |
| CCC(c1nnnn1CCc1ccccc1)N(Cc1ccco1)Cc1cc2c(C)ccc(C)c2[nH]c1=O (stereo not shown) | 2.44% |
| Cc1ccccc1-n1c(SCC(=O)NCC2CCCO2)nc2c([nH]c3ccccc32)c1=O (stereo not shown) | 13.7% |
| O=C(CCNS(=O)(=O)c1ccccc1)Nc1ccc(Cl)cc1C(=O)c1ccccc1 | -16.3% |
| Cc1cc(C)c(NC(=O)CN)c(C)c1.Cl | 13.3% |
| COc1ccc(C(=O)c2c(NC(C)=O)sc3c2CCN(C(=O)OC(C)(C)C)C3)cc1 | 5.36% |
| CCCOc1ccc(CNC(=O)C2CCN(C(=O)N3CCOc4ccccc43)CC2)cc1 | 13.4% |
| CCCc1ccc(OCc2ccc(C(=O)N3CCSCC3)o2)cc1 | 5.73% |
| CCOC(=O)c1c(C)[nH]c(C(=O)NCCc2ccc(OC)c(OC)c2)c1C | -6.48% |
| CC(C)C(Nc1ccc(S(=O)(=O)N2CCOCC2)cc1[N+](=O)[O-])C(=O)O (stereo not shown) | 14.9% |
| Cn1ccnc1Sc1cc(NCCCO)c([N+](=O)[O-])c2nonc12 | 6.85% |
| CCOC(=O)N1CCN(C(=S)Nc2cccc(C)c2)CC1 | 2.51% |
| CCc1c(C)n2nc(C)cc2[nH]c1=O | 0.617% |
| CCOc1cc(/C=C2\N=C(C)OC2=O)cc(Br)c1OCC(=O)OC | 18.6% |
| O=C(COC(=O)C1CC2C=CC1C2)Nc1ccccc1 (stereo not shown) | 0.351% |
| Cc1cc(C)n2nc(C(=O)OCC(=O)N3C(C)CCCC3C)nc2n1 (stereo not shown) | 9.28% |
| Cc1nn(C2CCS(=O)(=O)C2)c(C)c1CN(C)C(=O)c1cccc(Cl)c1 (stereo not shown) | 12.4% |
| N/C(=N\c1nc2ccccc2o1)NC(=O)c1ccccc1F | -3.34% |
